# From the supplement of paper PMC8728848
# The list shows a part of the results.
# B1: FGFR2-Fc (protein)
# chain: MVNVTDAISSGDDEDDTDGAEDFVSENSNNKRAPYWTNTEKMEKRLHAVPAANTVKFRCPAGGNPMPTMRWLKNGKEFKQEHRIGGYKVRNQHWSLIMESVVPSDKGNYTCVVENEYGSINHTYHLDVVERSPHRPILQAGLPANASTVVGGDVEFVCKVYSDAQPHIQWIKHVEKNGSKYGPDGLPYLKVLKHSGINSSNAEVLALFNVTEADAGEYICKVSNYIGQANQSAWLTVLPKQQAPGREKEITASPDYLETRPLEQKLISEEDLAANDILDYKDDDDKV
# Tests used:
# Assay in all cases: glycan array binding signal (z-score within array); higher = stronger binding
# Details in all cases: glycan notation: IUPAC condensed, linker removed
# [1] = molecular target: Gal(b1-3)GlcNAc(b1-6)[Gal(b1-3)]GalNAc
# In short: (§1)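 Glycan array data came from 3228 arrays in the Consortium for Functional Glycomics database, and only arrays with an available protein sequence were kept. Glycan names were put into IUPAC-condensed notation, and columns mapping to the same glycan were averaged. The binding signal is a within-array Z-score, averaged across arrays of one protein sequence run at different concentrations or buffers and across linkers. A negative Z-score can be read as non-binding.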
# Gal(b1-3)GlcNAc6S = molecular target: Gal(b1-3)GlcNAc6S
# In short: as §1
# [2] = molecular target: Gal(b1-3)[Fuc(a1-4)]GlcNAc
# In short: as §1
# [3] = molecular target: Gal(b1-3)[Fuc(a1-4)]GlcNAc(b1-2)Man
# In short: as §1
# [4] = molecular target: Gal(b1-3)[Fuc(a1-4)]GlcNAc(b1-2)Man(a1-3)[Gal(b1-3)[Fuc(a1-4)]GlcNAc(b1-2)Man(a1-6)]Man(b1-4)GlcNAc(b1-4)[Fuc(a1-6)]GlcNAc
# In short: as §1
# [5] = molecular target: Gal(b1-3)[Fuc(a1-4)]GlcNAc(b1-3)Gal(b1-3)[Fuc(a1-4)]GlcNAc
# In short: as §1
# [6] = molecular target: Gal(b1-3)[Fuc(a1-4)]GlcNAc(b1-3)Gal(b1-4)[Fuc(a1-3)]GlcNAc
# In short: as §1
# [7] = molecular target: Gal(b1-3)[Fuc(a1-4)]GlcNAc(b1-6)GalNAc
# In short: as §1
# [8] = molecular target: Gal(b1-3)[GlcNAc(b1-6)]GalNAc
# In short: as §1
# [9] = molecular target: Gal(b1-3)[Neu5Ac(a2-6)]GalNAc
# In short: as §1
# [10] = molecular target: Gal(b1-3)[Neu5Ac(a2-6)]GlcNAc(b1-4)Gal(b1-4)Glc
# In short: as §1
# [11] = molecular target: Gal(b1-3)[Neu5Ac(b2-6)]GalNAc
# In short: as §1
# Gal(b1-4)Gal = molecular target: Gal(b1-4)Gal
# In short: as §1
# [12] = molecular target: Gal(b1-4)GalNAc(a1-3)[Fuc(a1-2)]Gal(b1-4)GlcNAc
# In short: as §1
# [13] = molecular target: Gal(b1-4)GalNAc(b1-3)[Fuc(a1-2)]Gal(b1-4)GlcNAc
# In short: as §1
# Gal(b1-4)Glc = molecular target: Gal(b1-4)Glc
# In short: as §1
# Gal(b1-4)Glc6S = molecular target: Gal(b1-4)Glc6S
# In short: as §1
# Gal(b1-4)GlcNAc = molecular target: Gal(b1-4)GlcNAc
# In short: as §1
# [14] = molecular target: Gal(b1-4)GlcNAc(a1-6)Gal(b1-4)GlcNAc
# In short: as §1
# Gal(b1-4)GlcNAc(b1-2)Man = molecular target: Gal(b1-4)GlcNAc(b1-2)Man
# In short: as §1
# [15] = molecular target: Gal(b1-4)GlcNAc(b1-2)Man(a1-3)Man(b1-4)GlcNAc(b1-4)GlcNAc
# In short: as §1
# [16] = molecular target: Gal(b1-4)GlcNAc(b1-2)Man(a1-3)[Gal(b1-4)GlcNAc(b1-2)Man(a1-6)]Man(b1-4)GlcNAc(b1-4)GlcNAc
# In short: as §1
# [17] = molecular target: Gal(b1-4)GlcNAc(b1-2)Man(a1-3)[Gal(b1-4)GlcNAc(b1-2)Man(a1-6)]Man(b1-4)GlcNAc(b1-4)[Fuc(a1-6)]GlcNAc
# In short: as §1
# [18] = molecular target: Gal(b1-4)GlcNAc(b1-2)Man(a1-3)[Gal(b1-4)GlcNAc(b1-2)Man(a1-6)][Gal(b1-4)GlcNAc(b1-4)]Man(b1-4)GlcNAc(b1-4)[Fuc(a1-6)]GlcNAc
# In short: as §1
# [19] = molecular target: Gal(b1-4)GlcNAc(b1-2)Man(a1-3)[Gal(b1-4)GlcNAc(b1-2)Man(a1-6)][GlcNAc(b1-4)]Man(b1-4)GlcNAc(b1-4)[Fuc(a1-6)]GlcNAc
# In short: as §1
# [20] = molecular target: Gal(b1-4)GlcNAc(b1-2)Man(a1-3)[GlcNAc(b1-2)Man(a1-6)]Man(b1-4)GlcNAc(b1-4)GlcNAc
# In short: as §1
# [21] = molecular target: Gal(b1-4)GlcNAc(b1-2)Man(a1-3)[GlcNAc(b1-4)][Gal(b1-4)GlcNAc(b1-2)Man(a1-6)]Man(b1-4)GlcNAc(b1-4)GlcNAc
# In short: as §1
# [22] = molecular target: Gal(b1-4)GlcNAc(b1-2)Man(a1-3)[Man(a1-6)]Man(b1-4)GlcNAc(b1-4)GlcNAc
# In short: as §1
# [23] = molecular target: Gal(b1-4)GlcNAc(b1-2)Man(a1-6)Man(b1-4)GlcNAc(b1-4)GlcNAc
# In short: as §1
# [24] = molecular target: Gal(b1-4)GlcNAc(b1-2)Man(a1-6)[GlcNAc(b1-2)Man(a1-3)]Man(b1-4)GlcNAc(b1-4)GlcNAc
# In short: as §1
# [25] = molecular target: Gal(b1-4)GlcNAc(b1-2)Man(a1-6)[Man(a1-3)]Man(b1-4)GlcNAc(b1-4)GlcNAc
# In short: as §1
# [26] = molecular target: Gal(b1-4)GlcNAc(b1-2)[Gal(b1-4)GlcNAc(b1-4)]Man(a1-3)[Gal(b1-4)GlcNAc(b1-2)Man(a1-6)]Man(b1-4)GlcNAc(b1-4)GlcNAc
# In short: as §1
# [27] = molecular target: Gal(b1-4)GlcNAc(b1-2)[Gal(b1-4)GlcNAc(b1-4)]Man(a1-3)[Gal(b1-4)GlcNAc(b1-2)[Gal(b1-4)GlcNAc(b1-6)]Man(a1-6)]Man(b1-4)GlcNAc(b1-4)GlcNAc
# In short: as §1
# [28] = molecular target: Gal(b1-4)GlcNAc(b1-2)[Gal(b1-4)GlcNAc(b1-4)]Man(a1-3)[GlcNAc(b1-4)][Gal(b1-4)GlcNAc(b1-2)Man(a1-6)]Man(b1-4)GlcNAc(b1-4)GlcNAc
# In short: as §1
# [29] = molecular target: Gal(b1-4)GlcNAc(b1-2)[Gal(b1-4)GlcNAc(b1-4)]Man(a1-3)[GlcNAc(b1-4)][Gal(b1-4)GlcNAc(b1-2)[Gal(b1-4)GlcNAc(b1-6)]Man(a1-6)]Man(b1-4)GlcNAc(b1-4)GlcNAc
# In short: as §1
# [30] = molecular target: Gal(b1-4)GlcNAc(b1-2)[Gal(b1-4)GlcNAc(b1-6)]Man(a1-6)[Gal(b1-4)GlcNAc(b1-2)Man(a1-3)]Man(b1-4)GlcNAc(b1-4)GlcNAc
# In short: as §1
# [31] = molecular target: Gal(b1-4)GlcNAc(b1-2)[Gal(b1-4)GlcNAc(b1-6)]Man(a1-6)[Gal(b1-4)GlcNAc(b1-2)Man(a1-3)]Man(b1-4)GlcNAc(b1-4)[Fuc(a1-6)]GlcNAc
# In short: as §1
# [32] = molecular target: Gal(b1-4)GlcNAc(b1-2)[Gal(b1-4)GlcNAc(b1-6)]Man(a1-6)[GlcNAc(b1-4)][Gal(b1-4)GlcNAc(b1-2)Man(a1-3)]Man(b1-4)GlcNAc(b1-4)GlcNAc
# In short: as §1
# [33] = molecular target: Gal(b1-4)GlcNAc(b1-2)[Gal(b1-4)GlcNAc(b1-6)]Man(a1-6)[GlcNAc(b1-4)][Gal(b1-4)GlcNAc(b1-2)[Gal(b1-4)GlcNAc(b1-4)]Man(a1-3)]Man(b1-4)GlcNAc(b1-4)[Fuc(a1-6)]GlcNAc
# In short: as §1
# [34] = molecular target: Gal(b1-4)GlcNAc(b1-3)Gal(b1-3)GalNAc
# In short: as §1
# [35] = molecular target: Gal(b1-4)GlcNAc(b1-3)Gal(b1-3)GlcNAc
# In short: as §1
# [36] = molecular target: Gal(b1-4)GlcNAc(b1-3)Gal(b1-4)Glc
# In short: as §1
# [37] = molecular target: Gal(b1-4)GlcNAc(b1-3)Gal(b1-4)GlcNAc
# In short: as §1
# [38] = molecular target: Gal(b1-4)GlcNAc(b1-3)Gal(b1-4)GlcNAc(b1-2)Man(a1-3)[Gal(b1-4)GlcNAc(b1-3)Gal(b1-4)GlcNAc(b1-2)Man(a1-6)]Man(b1-4)GlcNAc(b1-4)GlcNAc
# In short: as §1
# [39] = molecular target: Gal(b1-4)GlcNAc(b1-3)Gal(b1-4)GlcNAc(b1-2)Man(a1-3)[Gal(b1-4)GlcNAc(b1-3)Gal(b1-4)GlcNAc(b1-2)Man(a1-6)]Man(b1-4)GlcNAc(b1-4)[Fuc(a1-6)]GlcNAc
# In short: as §1
binder,measurement,setting,value
B1,glycan array binding signal (z-score),[1],-0.475
same,glycan array binding signal (z-score),Gal(b1-3)GlcNAc6S,-0.542
same,glycan array binding signal (z-score),[2],0.062
same,glycan array binding signal (z-score),[3],0.186
same,glycan array binding signal (z-score),[4],0.322
same,glycan array binding signal (z-score),[5],0.443
same,glycan array binding signal (z-score),[6],-0.344
same,glycan array binding signal (z-score),[7],0.423
same,glycan array binding signal (z-score),[8],-0.352
same,glycan array binding signal (z-score),[9],-0.312
same,glycan array binding signal (z-score),[10],0.048
same,glycan array binding signal (z-score),[11],0.257
same,glycan array binding signal (z-score),Gal(b1-4)Gal,-0.141
same,glycan array binding signal (z-score),[12],-0.197
same,glycan array binding signal (z-score),[13],-0.319
same,glycan array binding signal (z-score),Gal(b1-4)Glc,-0.565
same,glycan array binding signal (z-score),Gal(b1-4)Glc6S,0.569
same,glycan array binding signal (z-score),Gal(b1-4)GlcNAc,-0.342
same,glycan array binding signal (z-score),[14],-0.372
same,glycan array binding signal (z-score),Gal(b1-4)GlcNAc(b1-2)Man,-0.101
same,glycan array binding signal (z-score),[15],-0.054
same,glycan array binding signal (z-score),[16],-0.121
same,glycan array binding signal (z-score),[17],0.084
same,glycan array binding signal (z-score),[18],-0.801
same,glycan array binding signal (z-score),[19],-0.418
same,glycan array binding signal (z-score),[20],-0.265
same,glycan array binding signal (z-score),[21],-0.552
same,glycan array binding signal (z-score),[22],-0.414
same,glycan array binding signal (z-score),[23],-0.148
same,glycan array binding signal (z-score),[24],-0.06
same,glycan array binding signal (z-score),[25],0.515
same,glycan array binding signal (z-score),[26],-0.037
same,glycan array binding signal (z-score),[27],-0.23
same,glycan array binding signal (z-score),[28],-0.176
same,glycan array binding signal (z-score),[29],0.046
same,glycan array binding signal (z-score),[30],-0.1
same,glycan array binding signal (z-score),[31],-0.336
same,glycan array binding signal (z-score),[32],-0.241
same,glycan array binding signal (z-score),[33],-0.188
same,glycan array binding signal (z-score),[34],-0.42
same,glycan array binding signal (z-score),[35],0.404
same,glycan array binding signal (z-score),[36],0.154
same,glycan array binding signal (z-score),[37],-0.474
same,glycan array binding signal (z-score),[38],0.351
same,glycan array binding signal (z-score),[39],0.691
